Assay results as given in the supplement of paper PMC11417369.
± gives the standard deviation of the averaged measurements. Some of the results follow.

What follows are sequences tested on PfAP2-EXP AP2 domain (GST-tagged) (assay: gcPBM binding intensity (ln(normalized median fluorescence intensity)); higher = stronger DNA binding).
In short: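 After 1 h on an Agilent 4 × 180k array of primer-extended double-stranded 36-bp intergenic genomic probes and negative controls, bound GST-tagged P. falciparum DNA-binding domains were detected with Alexa488 anti-GST antibody and scanned at 488 nm. The domains had been expressed in E. coli, and binding took place in 1× PBS with 1% milk, 0.2 mg/ml BSA, 0.5% salmon testes DNA and 0.03% Triton X-100. Binding intensity is the highest Masliner-normalised natural-log median intensity across replicate spots of either probe orientation.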

Sequence	gcPBM binding intensity (ln)
TAATTAAAAAATGAATAAATGAATAAATAAATAAAT [CACACA_negctrl_site838]	8.52 ± 0.35
TTAATGTTTGAAAGAGTGCACATAACAAAAAAAAAA [GTGCAC_site9623]	9.15 ± 0.15
TTTTTGTATCCTTTTAATATTAAATAAAAGGAATGT [CACACA_negctrl_site1468]	8.32 ± 0.37
CAATAAATAATAAATACATGCAAGTATGAAGATATA [TGCATGCA_site859]	9.67 ± 0.4
TATATATATTTTAACACACACATATATATATTTATA [CACACA_site2765]	8.54 ± 0.38
TGTTTGATGGTACACGTACACACCTTGCAAATATTT [CACACA_site888]	9.12 ± 0.37
AATATAAAATAGAAAAATGAAAAAAAAAAAAAGGGT [CACACA_negctrl_site1263]	8.49 ± 0.092
AATAAGAATTAAAAATGTACAAAAAAATGTATTTAT [XGTACX_site8005]	8.43 ± 0.28
AAGTATAAAATATTTTGTACTTAAAAAATTATATGG [XGTACX_site2180]	8.45 ± 0.2
TTTTTTTTTTTTGGTAGTACATAAATATTTTATGGA [XGTACX_site6851]	8.39 ± 0.38
CATGTTATATATATATGTACTAAAAATATAATATAA [XGTACX_site1978]	8.47 ± 0.28
AGTGGGATTTTTAATTGTACATAAATAATATCATAA [XGTACX_site4163]	8.39 ± 0.29
TGCAGGTGTTATTCACGTACGCATTTGATTAAAAAA [XGTACX_site7743]	8.65 ± 0.4
TAAAATATACAAATTTGTACATATATATGTATGTAT [XGTACX_site1127]	8.83 ± 0.35
TAATTTTATATAAATTGTACAAAAATATTTTATTAA [XGTACX_site7166]	8.38 ± 0.38
ATAAAAACATAAAAATGTACATATATATATATATAT [XGTACX_site7165]	10.1 ± 0.25
ATTAGAAAATAAAATAATAAATAAAATAAAAAAAAA [CACACA_negctrl_site409]	8.25 ± 0.57
ATGTATATGCAAACATGTACATATATAAACATATAT [XGTACX_site4159]	8.61 ± 0.36
GTGTTGGGAAAAGGCATGCACTTTTTTTTTTTTTTT	8.98 ± 0.25
AATATTAGGTTATGTAGTACATAACAATAATTATAC [XGTACX_site5733]	8.71 ± 0.3
TTTTATTTTATTCAATTTTTACTTTTATAAAAATAT [GTGCAC_negctrl_site578]	8.54 ± 0.44
ATAAAGAATATAAATACACACTTAAATATATATTAT [CACACA_site6071]	8.46 ± 0.39
AAGGAATATGTATATACACACAGGTACATATTTATA [CACACA_site6344]	8.71 ± 0.3

Sequence	gcPBM binding intensity (ln)
CACAAAAATTTATACACACACATATAAAATATAGAT [CACACA_site6218]	8.5 ± 0.34
AGTTATTACACACAAACATGCATTAATATCAAAAAA [TGCATGCA_site63]	8.59 ± 0.35
TTCACTATACAAAGGTGTACTTAATTTTGTCCCATT [XGTACX_site7483]	8.6 ± 0.33
AAATATATATATAGTACATGCAGTAGATAATTTAAT [TGCATGCA_site299]	9.4 ± 0.19
AATTCACATGTGAACTAAAAGAATATTATATATATA [CACACA_negctrl_site1632]	9.055 ± 0.049
ATTAGGTATTTTTTTTGTACATATTATATAATGTGA [XGTACX_site3815]	8.65 ± 0.4
AATGATCAGATATACACACACACAAAAAAAAAAAAA [CACACA_site7806]	8.34 ± 0.59
GTAAATAAATAAATAAATAAATATATATATATATAT [CACACA_negctrl_site1737]	10 ± 0.42
AATAAAAAAAAATTCACACAAAGTTAGATTAACTAT [CACACA_site4224]	8.23 ± 0.54
TATCCTTATATTTGCACACACACACCCTAAAATGAA [CACACA_site1029]	9.06 ± 0.19
TTTATATTTAAAAGGATGCACTACAAATTCTAAATA	8.38 ± 0.28
AAAACAAACAGACACACACACATATTTATATTTATA [CACACA_site7681]	8.55 ± 0.46
TTATATTAAACAAACACACACATATAAATATAAATA [CACACA_site7174]	8.82 ± 0.42
CTACAATATCTTTAAAGTACTTTTATATAACTACCA [XGTACX_site6119]	8.63 ± 0.35
AAGACAAATATGAAGAGTACATTTATATAAAAATTA [XGTACX_site5142]	8.62 ± 0.51
ATTTTTTCCAATTCTTTACCTTAGAAAGGTGTTCAA [CACACA_negctrl_site1401]	8.51 ± 0.52
ATATATTTTTATGTAGTGCATTTAAATAATAAATGC	8.45 ± 0.11
ATTCTAAATAAATGTACACACAAAAATAAATGTATA [CACACA_site1732]	8.61 ± 0.31
ACCTCATAATATTTAACACACAAAATTATATGTATG [CACACA_site1704]	8.65 ± 0.33
ATATATATATAATGAAGTACGAAAAAATAAGAAATG [XGTACX_site4001]	9.53 ± 0.028
TTTTTTTTTTTAAGTTCACACATAAATTCGATTTAC [CACACA_site5057]	8.4 ± 0.4
ACCGTTTTTGTGTAATGTACAAAATTTCTGACAGTG [XGTACX_site4999]	8.7 ± 0.4
AAAGGAAAATTAAAAAGTACACATTTGAAAAAAAAA [XGTACX_site2724]	8.53 ± 0.28

Sequence	gcPBM binding intensity (ln)
ATAATTTGTAAAAGGAGTACAAAACCATACTTTTTT [XGTACX_site6076]	8.4 ± 0.19
ATGTATTTAATAAGAACACACATATATTTAATTTAA [CACACA_site5606]	8.22 ± 0.47
TTTATACATTTATATTGTACTAATTCGATTTTATAT [XGTACX_site5424]	8.55 ± 0.32
AATGATCATATATACACACACACAAAAAAAAAAAAA [CACACA_site4009]	8.32 ± 0.49
AAAGAAAAAGAAAAAGAAAAATTAGAATATAAAATA [CACACA_negctrl_site792]	8.22 ± 0.57
ATAAGAAATGTAACTTGTACATAAGGATATATATTT [XGTACX_site236]	8.59 ± 0.35
CATTTATATAAATACACACACACAAAAAAAAAAAAA [CACACA_site5459]	8.3 ± 0.6
TAATAATAAAAAAATAGTACATAAATAAAAATAATA [XGTACX_site4774]	8.61 ± 0.38
ATTTATAAAATTAATGCACACATCAGCATTTATAAA [CACACA_site1025]	8.72 ± 0.24
TAAATACATAGATGTACACACATTACAGATGTACAT [CACACA_site4692]	8.48 ± 0.32
TATAAAATAAAAAATAAATATCTATATATATATATA [TGCATGCA_negctrl_site351]	9.96 ± 0.33
TTGTGTTATCCTTTTTTAGATCAACTATTTTTATTC [CACACA_negctrl_site145]	8.54 ± 0.4
ATAAAGCACACCGACACACACATATTTATATTTATA [CACACA_site6620]	8.79 ± 0.12
TATATATATATATATGTGCGCATATATTTTTTTGTA [GTGCAC_site9983]	10.1 ± 0.18
ACAAAATTTACAAAATGTACAAAATATACAAAATAT [XGTACX_site6465]	8.55 ± 0.43
TATTCTTATATATATACACACACAAAATATCTACAA [CACACA_site8144]	8.58 ± 0.33
TTGCATTGATCAAACATACACACATGGTTAATAAAA [CACACA_site2084]	8.64 ± 0.47
CATGAGGTATAAAAGGTGCAAATTAATGAGAACATT	9.09 ± 0.17
TTATATCAAGGGAATGCATGCATATCGTTTTGTATT [TGCATGCA_site327]	9.85 ± 0.63
ACTAGACAAAATATAATGCACACTATTATTTTTATT [CACACA_site2726]	8.795 ± 0.049
AATAATATACATATATATATTATATTGTAATTTTGT [TGCATGCA_negctrl_site1]	8.08 ± 0.41
TATTTCTCACTGTATGGTACAGATATAAATTTTTAT [XGTACX_site8776]	8.54 ± 0.34
ATCAAATTTTTGTTATGTACACAATCATTTAATAAA [XGTACX_site810]	8.41 ± 0.37

Sequence	gcPBM binding intensity (ln)
ATTACAATAAATTCGTGTACATGATACCGCCGCTAC [XGTACX_site8997]	8.77 ± 0.45
CACAAATAAATATTCACACATATATGTCTTATATAT [CACACA_site5323]	8.34 ± 0.38
AAAAAAAAAAAATAGGTGCGTGTTACTTTTGTATGC [GTGCAC_site9524]	8.7 ± 0.49
TAATTATTATTAAATACACACACATACCTCCATGTT [CACACA_site9134]	8.49 ± 0.39
AAACAGATAAATAAAAGTACACATTAAAAGGTAGCA [XGTACX_site4150]	8.66 ± 0.3
ATATATATGTATAATCGTACAGTTAACGTATTCTTA [XGTACX_site5649]	8.64 ± 0.38
TAATTAATTTCTTTACGTACATAATTAATATATATA [XGTACX_site7372]	8.63 ± 0.31
GGATTTTAATGAACACGTACATAAAATTAAATAAAT [XGTACX_site7023]	8.63 ± 0.3
GGTTCATAATATGGTTGTACATAAATATATATATAT [XGTACX_site7583]	9.89 ± 0.33
GGGAGGATAGTTCACAGTACCCAGGAAATCTACGGA [XGTACX_site2553]	8.81 ± 0.44
AATGGGTAAACATACACACACACATCTATATTTATA [CACACA_site7025]	8.44 ± 0.67
TAACAAGGTTTATATGCATGCAAACATAACCAAAAA [TGCATGCA_site824]	9.96 ± 0.23
CTTTGCCTTAAAAAGGAACACACATGCTTTTTTTAG [CACACA_site8219]	8.28 ± 0.38
TACTATATCATTTATTGTACAATATTTCTTCAGAAA [XGTACX_site1008]	8.73 ± 0.4
TATAAAAGACTAAATATTATAGAAATATAAATATAA [TGCATGCA_negctrl_site237]	8.13 ± 0.23
TGCTTCATAAATAAAACATGCAATATAGAAATTAAA [TGCATGCA_site690]	8.62 ± 0.4
TTATTTTCTTTCTATGCACACGCACGTATTTGCCCA [CACACA_site9104]	8.93 ± 0.22
TATAGTAAAATTAGGGTGCTTTTGTAACAAAAAAAA	8.77 ± 0.2
AGAGTAGGAAATGGAAAAATAAAATAAATAAATAAA [XGTACX_negctrl_site69]	8.7 ± 0.42
AAATATATATACCACACACACATACCTCTATTTGTA [CACACA_site1854]	8.74 ± 0.51
